# PubChem BioAssay (NCATS)
# Values joined by “and” are separate entries in the source; they are usually repeats but may differ in a detail not shown here. Equal entries are not always repeated. This list was built around the results that the source calls inconclusive (neither active nor inactive); the mix of calls is not that of the screen. A potency beside an inconclusive call is a rough fit, not a confirmed value. Active and inactive are the calls of the source. The call rests on the fitted dose curve; in most records, active means well fitted curve in the direction sought with a large enough effect; inconclusive means small, poorly fitted or top-dose-only effect, or another doubt; inactive means no such curve, though single readings can be large; an effect the other way counts as inactive or inconclusive. Where a SMILES comes first, the peptide text is derived from it. The star is where a group is joined. Cbz = O=C(OCc1ccccc1)*; CH2Cl = ClC*
# Assays:
# [1] = P-glycoprotein substrates identified in KB-8-5-11 adenocarcinoma cell line, qHTS therapeutic library screen (AID 1346987); further: nearly all actives have a fitted effect of over 65% in size
# Outline: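 Steps: plate 500 KB-8-5-11 cells/well in DMEM + 10% FCS (colchicine removed); pin compounds in dose-response; incubate 72 h, 37 degree C, 5% CO2; add CellTiter-Glo, 5 min; read luminescence.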
# [2] = Primary qHTS for inhibitors of nuclear receptor binding SET domain protein 2 (NSD2) in an isogenic RCH-ACV NSD2 p.E1099K mutant (9B) (AID 1645876); further: nearly all actives have a fitted effect of over 70% in size
# CRL-7250 = normal cell line; assay: Cytotoxic Profiling of Annotated Libraries Using Quantitative High-Throughput Screening (AID 1296008); conditions: Five cell lines viability, CellTiter-Glo ATP luminescence, 48-72 h; max response: hits give low values; further: nearly all actives have a fitted effect of over 60% in size
# Outline: (§1)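 Compounds were pin-transferred onto cells and incubated 48 or 72 hr at 37 degree Celsius, 95% humidity. CellTiter-Glo was added, plates sat 10 min at room temperature, then ATP-coupled luminescence was imaged as the viability read-out.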
# HaCat = assay: as above; conditions: Five cell lines viability, CellTiter-Glo ATP luminescence, 48-72 h; max response: hits give low values
# Outline: as §1
# KB-3-1 = assay: as above; conditions: Five cell lines viability, CellTiter-Glo ATP luminescence, 48-72 h; max response: hits give low values
# Outline: as §1
# C33A = assay: Primary qHTS to identify gynecologic anti-cancer compounds using libraries of approved drugs and bioactive compounds (AID 1345084); conditions: Gynecologic cancer cell panel viability, ATPlite luminescence, 48 h; series mostly up to 57.5 µM; further: nearly all actives have a fitted effect of over 55% in size
# Outline: (§2)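 ATP-based viability (ATPlite), 1,000 cells/well, 16 h pre-incubation, 48 h compound at 37 C, 5% CO2, 15 min RT before read.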
# CAOV3 = assay: as above; conditions: Gynecologic cancer cell panel viability, ATPlite luminescence, 48 h; activity change, negative = cytotoxicity: at 57.5 µM (top of the series)
# Outline: as §2
# Es-2 = assay: as above; conditions: Gynecologic cancer cell panel viability, ATPlite luminescence, 48 h; series mostly up to 57.5 µM
# Outline: as §2
# Hek293T = assay: as above; conditions: Gynecologic cancer cell panel viability, ATPlite luminescence, 48 h, control line for the selectivity index; activity change, negative = cytotoxicity: at 57.5 µM (top of the series) unless noted
# Outline: as §2
# JEG-3 = assay: as above; conditions: Gynecologic cancer cell panel viability, ATPlite luminescence, 48 h; series mostly up to 57.5 µM
# Outline: as §2
# PA-1 = assay: as above; conditions: Gynecologic cancer cell panel viability, ATPlite luminescence, 48 h; series mostly up to 57.5 µM
# Outline: as §2
# SKOV3 = assay: as above; conditions: Gynecologic cancer cell panel viability, ATPlite luminescence, 48 h; series mostly up to 57.5 µM
# Outline: as §2
# Tov-21-G = assay: as above; conditions: Gynecologic cancer cell panel viability, ATPlite luminescence, 48 h; activity change, negative = cytotoxicity: at 57.5 µM (top of the series) unless noted
# Outline: as §2
# Tov112D = assay: as above; conditions: Gynecologic cancer cell panel viability, ATPlite luminescence, 48 h; series mostly up to 57.5 µM
# Outline: as §2
# [3] = Primary qHTS for inhibitors of nuclear receptor binding SET domain protein 2 (NSD2) in an RCH-ACV wild type WT cells (2C) (AID 1645877); conditions: activity change, negative = cell killing: at 44.9 µM (top of the series) unless noted; further: nearly all actives have a fitted effect of over 70% in size
# CASKI = assay: Primary qHTS to identify gynecologic anti-cancer compounds using libraries of approved drugs and bioactive compounds (AID 1345084); conditions: Gynecologic cancer cell panel viability, ATPlite luminescence, 48 h; series mostly up to 57.5 µM; further: nearly all actives have a fitted effect of over 55% in size
# Outline: as §2
# HeLa = assay: as above; conditions: Gynecologic cancer cell panel viability, ATPlite luminescence, 48 h; activity change, negative = cytotoxicity: at 57.5 µM (top of the series)
# Outline: as §2
# Potency means the concentration at half of the fitted maximal effect; tags describe the fitted curve by direction and shape.
SMILES,Potency [1],Potency [2],Potency (CRL-7250),Potency (HaCat),Potency (KB-3-1),Potency (C33A),Potency (CAOV3),Potency (Es-2),Potency (Hek293T),Potency (JEG-3),Potency (PA-1),Potency (SKOV3),Potency (Tov-21-G),Potency (Tov112D),Potency [3],Potency (CASKI),Potency (HeLa)
CC(C)C[C@H](NC(=O)CNC(=O)OCc1ccccc1)C(=O)N[C@@H](Cc1ccccc1)C(=O)CCl (Cbz-Gly-Leu-Phe-CH2Cl),"inconclusive: 20.6 µM [inhibitor, single point]",active: 7.28 µM,"inconclusive: 23.1 µM [inhibitor, single point]","inconclusive: 29.1 µM [inhibitor, single point]","inconclusive: 18.4 µM [inhibitor, single point]","inconclusive: 25.1 µM [cytotoxic, single point]","inconclusive: 39.8 µM [cytotoxic, single point]","inconclusive: 25.1 µM [cytotoxic, single point]","inconclusive: 31.6 µM [cytotoxic, single point]","inconclusive: 15.8 µM [cytotoxic, partial curve]","inconclusive: 39.8 µM [cytotoxic, single point]","inconclusive: 35.5 µM [cytotoxic, single point]","inconclusive: 31.6 µM [cytotoxic, single point]","inconclusive: 28.2 µM [cytotoxic, single point]",,,
N#Cc1ccc2[nH]c(O)c(-c3ccc(CN4CCOCC4)cn3)c2c1,"inconclusive: 29.1 µM [inhibitor, single point]","inconclusive: 29 µM [inhibitor, single point]","inconclusive: 25.9 µM [inhibitor, single point] and inconclusive: 29.1 µM [inhibitor, single point]","inconclusive: 5.17 µM [inhibitor, partial curve]","inconclusive: 20.6 µM [inhibitor, single point]","inconclusive: 15.8 µM [rising, partial curve]","inconclusive: 0.891 µM [rising, partial curve, poor fit]",,,"inconclusive: 31.6 µM [rising, single point]","inconclusive: 35.5 µM [rising, single point]","inconclusive: 8.91 µM [rising, partial curve, poor fit]",,,"inconclusive: 20.5 µM [inhibitor, single point] and inconclusive: 29 µM [inhibitor, single point]","inconclusive: 15.8 µM [rising, partial curve, poor fit]","inconclusive: 39.8 µM [rising, single point]"
